The chains are these.
B1: GPR68, Q15743 (parent)
chain: MGNITADNSSMSCTIDHTIHQTLAPVVYVTVLVVGFPANCLSLYFGYLQIKARNELGVYLCNLTVADLFYICSLPFWLQYVLQHDNWSHGDLSCQVCGILLYENIYISVGFLCCISVDRYLAVAHPFRFHQFRTLKAAVGVSVVIWAKELLTSIYFLMHEEVIEDENQHRVCFEHYPIQAWQRAINYYRFLVGFLFPICLLLASYQGILRAVRRSHGTQKSRKDQIQRLVLSTVVIFLACFLPYHVLLLVRSVWEASCDFAKGVFNAYHFSLLLTSFNCVADPVLYCFVSETTHRDLARLRGACLAFLTCSRTGRAREAYPLGAPEASGKSGAQGEEPELLTKLHPAFQTPNSPGSGGFPTGRLA

Data set [1] covers variants of B1. Description: cAMP reporter score (Enrich2 score, wild type = 0); higher = more signal; HEK293T, FACS bins.
In data set [2] the parent is B1. Description: surface expression score (Enrich2 score, wild type = 0); higher = more signal; HEK293T, FACS bins.

The least precise scores are not listed. The source holds two more conditions with little spread; they are left out. Read del as a deletion of the residues named and ins as an insertion between two positions. For some assays here: The concentration of ogerin is not given here.

As for E336C, the cAMP reporter score in data set [1] (pH 5.5) is 0.839; in data set [1] (pH 6), -0.053; in data set [1] (pH 6, modulator: ogerin), 0.978; in data set [1] (pH 6.5, modulator: ogerin), 1.06. The surface expression score in data set [2] was -0.338.

For the variant E336K, the cAMP reporter score in data set [1] (pH 5.5) was 0.257; in data set [1] (pH 6) it was 0.289; in data set [1] (pH 6, modulator: ogerin), 0.036; in data set [1] (pH 6.5, modulator: ogerin) it was -0.046. For the same variant, the surface expression score in data set [2] is -0.049.

As to E336W, the cAMP reporter score in data set [1] (pH 5.5) was -0.771; in data set [1] (pH 6) it was 0.016; in data set [1] (pH 6, modulator: ogerin), -0.338; in data set [1] (pH 6.5, modulator: ogerin), -0.486. Moreover, in data set [2], the surface expression score is -0.364.

E336N: the cAMP reporter score in data set [1] (pH 5.5) came to 0.263; in data set [1] (pH 6), 0.028; in data set [1] (pH 6, modulator: ogerin) it was 0.626; in data set [1] (pH 6.5, modulator: ogerin) it was 0.387. Besides, the surface expression score in data set [2] is -0.281.

As to E336I, the cAMP reporter score was 0.111 in data set [1] (pH 5.5); 0.044 in data set [1] (pH 6); 0.233 in data set [1] (pH 6, modulator: ogerin); 0.116 in data set [1] (pH 6.5, modulator: ogerin). Moreover, in data set [2], the surface expression score came out at 0.763.

Consider E336H, for which the cAMP reporter score in data set [1] (pH 5.5) was 0.568; in data set [1] (pH 6), 1.38; in data set [1] (pH 6, modulator: ogerin), 1.82; in data set [1] (pH 6.5, modulator: ogerin), 0.166. Further, the surface expression score in data set [2] is 0.332.

For E336Q, the cAMP reporter score in data set [1] (pH 5.5) is 0.546; in data set [1] (pH 6) it was 0.063; in data set [1] (pH 6, modulator: ogerin), 0.899; in data set [1] (pH 6.5, modulator: ogerin), -0.199. Besides, the surface expression score in data set [2] came out at 0.627.

In the case of E336Y, the cAMP reporter score in data set [1] (pH 5.5) was 0.226; in data set [1] (pH 6), -0.405; in data set [1] (pH 6, modulator: ogerin), 0.284; in data set [1] (pH 6.5, modulator: ogerin) it was -0.122. Further, the surface expression score in data set [2] was -0.585.

Turning to Q334L, the cAMP reporter score in data set [1] (pH 5.5) was 1.85; in data set [1] (pH 6), 0.793; in data set [1] (pH 6, modulator: ogerin) it was -2.43.

As to Q334T, the cAMP reporter score in data set [1] (pH 5.5) was -0.31; in data set [1] (pH 6), 0.15; in data set [1] (pH 6, modulator: ogerin) it was 0.09; in data set [1] (pH 6.5, modulator: ogerin) it was 0.259. Moreover, the surface expression score in data set [2] came out at 0.47.

With Q334N, the cAMP reporter score is -0.669 in data set [1] (pH 5.5); 0.769 in data set [1] (pH 6); -0.226 in data set [1] (pH 6, modulator: ogerin); 0.499 in data set [1] (pH 6.5, modulator: ogerin). The surface expression score in data set [2] was -0.336.

As to Q334C, the cAMP reporter score is -1.3 in data set [1] (pH 5.5); -0.513 in data set [1] (pH 6); -1.05 in data set [1] (pH 6, modulator: ogerin); -0.863 in data set [1] (pH 6.5, modulator: ogerin). The surface expression score in data set [2] is -0.89.

As to Q334V, the cAMP reporter score in data set [1] (pH 5.5) is 0.627; in data set [1] (pH 6) it was 0.738; in data set [1] (pH 6, modulator: ogerin) it was 0.124; in data set [1] (pH 6.5, modulator: ogerin), 0.052. The surface expression score in data set [2] is 1.08.

Q334F: the cAMP reporter score in data set [1] (pH 5.5) came to 0.961; in data set [1] (pH 6, modulator: ogerin), 0.65; in data set [1] (pH 6.5, modulator: ogerin), 0.232. Besides, in data set [2], the surface expression score came to 0.173.

Consider Q334S, for which the cAMP reporter score in data set [1] (pH 5.5) was found to be 0.637; in data set [1] (pH 6) it was 0.563; in data set [1] (pH 6, modulator: ogerin), 0.48; in data set [1] (pH 6.5, modulator: ogerin), 0.423. Also, the surface expression score in data set [2] came to 0.796.

Regarding Q334M, the cAMP reporter score was 0.114 in data set [1] (pH 5.5); 0.511 in data set [1] (pH 6); -0.168 in data set [1] (pH 6, modulator: ogerin); -0.646 in data set [1] (pH 6.5, modulator: ogerin). In data set [2], the surface expression score amounted to 0.909.

Take Q334P: the cAMP reporter score in data set [1] (pH 5.5) is 0.139; in data set [1] (pH 6), -0.117; in data set [1] (pH 6, modulator: ogerin), 0.382; in data set [1] (pH 6.5, modulator: ogerin) it was 0.933. Further, the surface expression score in data set [2] stood at 0.893.

For the variant Q334E, the cAMP reporter score stood at 0.207 in data set [1] (pH 5.5); 0.22 in data set [1] (pH 6); 0.135 in data set [1] (pH 6, modulator: ogerin); 1.06 in data set [1] (pH 6.5, modulator: ogerin). The surface expression score in data set [2] stood at 0.773.

For Q334K, the cAMP reporter score in data set [1] (pH 5.5) is 1.04; in data set [1] (pH 6), 2.14; in data set [1] (pH 6, modulator: ogerin) it was 1.47; in data set [1] (pH 6.5, modulator: ogerin), 2.67. Moreover, in data set [2], the surface expression score is 1.07.

Turning to Q334A, the cAMP reporter score was determined as 0.676 in data set [1] (pH 5.5); 0.756 in data set [1] (pH 6); 0.935 in data set [1] (pH 6, modulator: ogerin); 0.731 in data set [1] (pH 6.5, modulator: ogerin). In data set [2], the surface expression score was found to be 0.815.

Regarding Q334H, the cAMP reporter score in data set [1] (pH 5.5) came to 1.46; in data set [1] (pH 6) it was 0.615; in data set [1] (pH 6, modulator: ogerin) it was 1.29; in data set [1] (pH 6.5, modulator: ogerin) it was 1.74. Further, the surface expression score in data set [2] is 1.03.

Take Q334R: the cAMP reporter score in data set [1] (pH 5.5) worked out at 1.93; in data set [1] (pH 6) it was 0.191; in data set [1] (pH 6, modulator: ogerin), 1.34; in data set [1] (pH 6.5, modulator: ogerin), 1.38. For the same variant, in data set [2], the surface expression score amounted to 0.819.

As for Q334D, the cAMP reporter score is -0.513 in data set [1] (pH 5.5); -0.458 in data set [1] (pH 6); 0.184 in data set [1] (pH 6, modulator: ogerin); 1.09 in data set [1] (pH 6.5, modulator: ogerin). Besides, the surface expression score in data set [2] was -0.809.

Q334I: the cAMP reporter score in data set [1] (pH 5.5) was 0.279; in data set [1] (pH 6), 0.41; in data set [1] (pH 6, modulator: ogerin), 0.403; in data set [1] (pH 6.5, modulator: ogerin), 0.691. In data set [2], the surface expression score stood at 0.51.

Regarding Q334G, the cAMP reporter score in data set [1] (pH 5.5) worked out at 1.19; in data set [1] (pH 6), 1.47; in data set [1] (pH 6, modulator: ogerin) it was 0.994; in data set [1] (pH 6.5, modulator: ogerin) it was 0.654. For the same variant, in data set [2], the surface expression score stood at 0.764.

Turning to Q334W, the cAMP reporter score in data set [1] (pH 5.5) is 1.26; in data set [1] (pH 6) it was -0.483; in data set [1] (pH 6, modulator: ogerin), 0.893; in data set [1] (pH 6.5, modulator: ogerin), 0.669. Further, the surface expression score in data set [2] is 0.205.

Regarding L340_L341insGSG, the cAMP reporter score came out at 0.975 in data set [1] (pH 5.5); 0.688 in data set [1] (pH 6); 1.22 in data set [1] (pH 6, modulator: ogerin); 1.56 in data set [1] (pH 6.5, modulator: ogerin). Also, the surface expression score in data set [2] stood at 1.09.

In the case of G335_E337del, the cAMP reporter score in data set [1] (pH 5.5) was 0.964; in data set [1] (pH 6), -0.256; in data set [1] (pH 6, modulator: ogerin), 0.742; in data set [1] (pH 6.5, modulator: ogerin), 1.13. The surface expression score in data set [2] came out at 0.307.

Take E337_P338insG: the cAMP reporter score in data set [1] (pH 5.5) was 0.022; in data set [1] (pH 6), -0.676; in data set [1] (pH 6, modulator: ogerin), 0.261; in data set [1] (pH 6.5, modulator: ogerin), -0.278. Further, the surface expression score in data set [2] is -0.351.

Consider L340_L341insGS, for which the cAMP reporter score in data set [1] (pH 5.5) amounted to 1.84; in data set [1] (pH 6), 0.201; in data set [1] (pH 6, modulator: ogerin), 2.28; in data set [1] (pH 6.5, modulator: ogerin) it was 2.51. Further, the surface expression score in data set [2] turned out to be 2.61.

For Q334_G335insGSG, the cAMP reporter score was found to be 0.889 in data set [1] (pH 5.5); 1.13 in data set [1] (pH 6); 1.02 in data set [1] (pH 6, modulator: ogerin); 0.92 in data set [1] (pH 6.5, modulator: ogerin). Also, the surface expression score in data set [2] was 1.06.

The record behind these values is the GPR68 mutational scans of Howard et al. (2025).
